This is one part of the list.
B1: chr2:100011259:100011260:+_ENSG00000158417_ENST00000289371|hu_hu|motif|central (ssRNA)
RNA: GGGAGUUCUACAGUCCGACGAUCGUAGUCUUGUCUAUAUUUUGUAAAGGCAUCAAAUAAAUGAUAAAUAAUUUCUGCACGGAAAAUUCUAACUCCUAAACUAUCAGCCAUUUCUUGUGCAUCUCGUUCAAUUCUCACAUCGAACAACAGAGGAUUGAGCAUCA
B2: chr2:73479818:73479819:+_ENSG00000135624_ENST00000258091|hu_hu|FALSE|FALSE (ssRNA)
RNA: GGGAGUUCUACAGUCCGACGAUCGGCUGCUGUCAGCGCAUUGAUCCGCACCAUAGCUGGCUCCCACACGAAAGCUUCAAAGUUGUCAGCAAUGUCCUCGUUGUUGAUGUCUACUCCAUACCAUGUACCCCCCUGGGCAUGCCGCAACAGAGGAUUGAGCAUCA
B3: chr7:65705844:65705845:+_ENSG00000169902_ENST00000304842|hu_mus|hu_hu_hu_mus_False|28_78 (ssRNA)
RNA: GGGAGUUCUACAGUCCGACGAUCAAACGGAUCUUUGUUACAUAAAUAAGGUGCCGGCUCCCCAUGCUUAACAAUGACCUCCAGAAGGAAGGCUUGCAUGGCAGAAUCCAGCACUUCAUCUGUGACACCCGCCUCAUCCAAGCGCAACAGAGGAUUGAGCAUCA
B4: chr19:8913615:8913616:-_ENSMUSG00000071658_ENSMUST00000096259|mus_hu|mus_mus_mus_hu_False|78_108 (ssRNA)
RNA: GGGAGUUCUACAGUCCGACGAUCAGGGGGGCACCAACUUCUGCCUGAAAUGGGUGCCCCACCCUGCAGGGAGUUGCAGCUGAAAGUAUCUGAUGCAGAAGCAGUGACUAUACGAAAGGAGGCCCCUGGGGAGGGCCAGGCCAGCAACAGAGGAUUGAGCAUCA
B5: chr2:48026839:48026840:+_ENSG00000116062_ENST00000540021|hu_hu|hu_hu_hu_mus_False|28_98 (ssRNA)
RNA: GGGAGUUCUACAGUCCGACGAUCAUAGUGAGCCACUAGAGUCCUAAAUCUGGAACAGUGGCGGUCAUCCGAAAACUGGCCGAUGAAAAACUUGCCCAGUGAAGUGUCAACAAAGCAAACACCAUACACACGAGUGUGACCAGACAACAGAGGAUUGAGCAUCA
B6: chr11:60016922:60016923:-_ENSMUSG00000020538_ENSMUST00000020846|mus_mus|FALSE|FALSE (ssRNA)
RNA: GGGAGUUCUACAGUCCGACGAUCCAGCUUAUGGUAGACAACAGCCGCAUCCCGGGCACUGGCACGGGCAUCCUUCCUCAGCCCACGGUCCCUCAGCAGGCCCCCGGCCUGGCCUGCCAGCCAGCGGCCCACCCAGAGACGCUGCAACAGAGGAUUGAGCAUCA

These binders were tested against T1, UNK ZnF1-3 (human, UniProt Q9C0B0 31-174) (assay: nsRBNS (natural sequence RNA bind-n-seq); RBNS binding buffer (assumed for nsRBNS): 25 mM Tris pH 7.5, 150 mM KCl, 3 mM MgCl2, 0.01% Triton X-100, 500 ug/ml BSA, 20 U/ml SUPERase-In, 4 C; UNK is unkempt and MSI1 is Musashi-1; names of the RNAs are library labels; protein concentration not given here; high values mean tight binding).
T1 sequence: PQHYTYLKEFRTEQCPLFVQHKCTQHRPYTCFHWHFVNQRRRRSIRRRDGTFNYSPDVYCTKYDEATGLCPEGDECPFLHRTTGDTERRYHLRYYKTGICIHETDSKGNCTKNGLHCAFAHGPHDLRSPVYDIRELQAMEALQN
In the case of B1, the binding signal is reported as 1.66 enrichment R.
B2 showed a binding signal of 1.04 enrichment R.
With B3 the binding signal was 0.232 enrichment R.
B4 showed a binding signal of 1.15 enrichment R.
B5 showed a binding signal of 1.33 enrichment R.
Binder B6 has a binding signal of 0.427 enrichment R.

From PMC12136788
